In the supplement of paper PMC11417369:
This is one part of the list.

Tested on: PfAP2-HC AP2 domain (GST-tagged)
Test: gcPBM binding intensity (ln(normalized median fluorescence intensity)); higher = stronger DNA binding
Outline: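 Binding intensity is defined as the maximum Masliner-normalised natural-log median intensity across replicate spots for either probe orientation. It was measured on an Agilent 4 × 180k array of primer-extended double-stranded 36-bp intergenic genomic probes and negative controls, to which GST-tagged P. falciparum DNA-binding domains made in E. coli were applied for 1 h in 1× PBS with 1% milk, 0.2 mg/ml BSA, 0.5% salmon testes DNA and 0.03% Triton X-100. Detection was by Alexa488 anti-GST antibody and scanning at 488 nm.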

Going from “ATATTATATATACACGCACACACACTAATATATATA [CACACA_site9092]” to “GAAATTTTATTACTTTTACACACCTATATATTATTC [CACACA_site9076]”, the “gcPBM binding intensity (ln)” value falls from 10.4 to 9.87.

Going from “TACAAAAAAAAAGAACGTACAAAAAATTTCAAAAAT [XGTACX_site5860]” to “TTAAACTATACCAAAACACACATACAAAATATAAAA [CACACA_site5494]”, the “gcPBM binding intensity (ln)” value rises from 9.73 to 10.2.

Going from “TATGTATATATATTAACACACAAAAAAAAAAAAAAA [CACACA_site1812]” to “ATGAACGGAAAAATATATATAAATATATATATCATG [XGTACX_negctrl_site342]”, the “gcPBM binding intensity (ln)” value rises from 9.55 to 9.86.

Going from “AAAAATTTTCAAGTGTGTACATATTTTCATTTAACA [XGTACX_site6186]” to “AAATATATATTCATGTGTACACACAAAAAAAAATAA [XGTACX_site4552]”, the “gcPBM binding intensity (ln)” value rises from 9.63 to 10.2.

Compared with “AAGAAAAAGTATCCTCTATCTTTATATAAACTATTA [TGCATGCA_negctrl_site2]”, “ATGTATATATTTTTATGTACATATTTTTAATTTATA [XGTACX_site2982]” is higher in “gcPBM binding intensity (ln)” value: 9.57 for the first, 9.64 for the second.

Compared with “CATACATATACTTTGTGTACATATATATATTATATA [XGTACX_site97]”, “TAATAAAAAATTAAAAAAAATAAAAATAAAAATAAA [GTGCAC_negctrl_site78]” is lower in “gcPBM binding intensity (ln)” value: 9.69 for the first, 9.42 for the second.

Compared with “TTTATACTTTTAAATTGTACTATAAAAAGGAATACA [XGTACX_site2537]”, “TTTTTATTTAGCTAAGCATGCTAACGATGACACTTC [TGCATGCA_site79]” is higher in “gcPBM binding intensity (ln)” value: 9.32 for the first, 9.7 for the second.

Going from “GAATATTCAACATAATGTACAAGTATTCATTTCTTT [XGTACX_site7860]” to “CAAAAATAAAAGAAATGTACAAAAAATAATAAAAAA [XGTACX_site6597]”, the “gcPBM binding intensity (ln)” value rises from 9.53 to 9.73.

Compared with “TAATAAACTTAAAAATGTACATATATTTATTATTAC [XGTACX_site4321]”, “AAAATTCATAAATACACACACGCACATATATATATA [CACACA_site4227]” is higher in “gcPBM binding intensity (ln)” value: 9.61 for the first, 10.2 for the second.

First: AAGAAAATGTATATATGTACATACAATCAAAAGAAG [XGTACX_site3454]
Second: ATCTGTACAGTTTTTGCACACATATAAATAAAAAAA [CACACA_site9198]
The “gcPBM binding intensity (ln)” value of the first is higher: 9.96 for the first, 9.79 for the second.

Going from “TATTTACAAATAAAAAGTACATAAACTAATATCTTT [XGTACX_site2181]” to “TTGTTTGTAAACAGATGTACATATAAAAATATATAT [XGTACX_site3370]”, the “gcPBM binding intensity (ln)” value rises from 9.56 to 9.7.

First: TATATTAGAAAGGATACACACATATATAAATATCTA [CACACA_site6411]
Second: ATATATATATATATATGTACATATATTTGTAATGTC [XGTACX_site8074]
The “gcPBM binding intensity (ln)” value of the first is lower: 9.79 for the first, 10.2 for the second.
